According to patent US20230183352A1:

Molecular target: human Claudin 18.2 on HCC827-CLDN 18.2 cells (human), P56856
Assay: cell-based or functional assay

Chain of human Claudin 18.2 on HCC827-CLDN 18.2 cells (human), P56856 (P56856 whole entry): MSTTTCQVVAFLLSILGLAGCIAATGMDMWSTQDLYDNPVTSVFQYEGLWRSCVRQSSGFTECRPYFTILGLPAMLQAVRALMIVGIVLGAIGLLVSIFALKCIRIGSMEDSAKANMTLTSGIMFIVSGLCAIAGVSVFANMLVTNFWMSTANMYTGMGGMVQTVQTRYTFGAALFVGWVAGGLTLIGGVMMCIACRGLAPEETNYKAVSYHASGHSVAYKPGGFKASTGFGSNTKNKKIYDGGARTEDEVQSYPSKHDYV

Binder	Killing percentage at 0 nM antibody (PBMC-mediated killing) [%]	Killing percentage at 0.00051 nM antibody (PBMC-mediated killing) [%]	Killing percentage at 0.00256 nM antibody (PBMC-mediated killing) [%]	Killing percentage at 0.01280 nM antibody (PBMC-mediated killing) [%]	Killing percentage at 0.06400 nM antibody (PBMC-mediated killing) [%]	Killing percentage at 0.32000 nM antibody (PBMC-mediated killing) [%]	Killing percentage at 1.60000 nM antibody (PBMC-mediated killing) [%]	Killing percentage at 8.00 nM antibody (PBMC-mediated killing) [%]	Killing percentage at 40.00 nM antibody (PBMC-mediated killing) [%]	Killing percentage at 200.00 nM antibody (PBMC-mediated killing) [%]	Readings at 490 nm (LDH release, T + E + Ab) at 0 nM antibody (absorbance at 490 nm)	Readings at 490 nm (LDH release, T + E + Ab) at 0.000512 nM antibody (absorbance at 490 nm)	Readings at 490 nm (LDH release, T + E + Ab) at 0.00256 nM antibody (absorbance at 490 nm)	Readings at 490 nm (LDH release, T + E + Ab) at 0.0128 nM antibody (absorbance at 490 nm)	Readings at 490 nm (LDH release, T + E + Ab) at 0.064 nM antibody (absorbance at 490 nm)	Readings at 490 nm (LDH release, T + E + Ab) at 0.32 nM antibody (absorbance at 490 nm)	Readings at 490 nm (LDH release, T + E + Ab) at 1.6 nM antibody (absorbance at 490 nm)	Readings at 490 nm (LDH release, T + E + Ab) at 8 nM antibody (absorbance at 490 nm)	Readings at 490 nm (LDH release, T + E + Ab) at 40 nM antibody (absorbance at 490 nm)	Readings at 490 nm (LDH release, T + E + Ab) at 200 nM antibody (absorbance at 490 nm)	other results
QP3711461 (anti-CLDN18.2/anti-PD-L1 bispecific antibody) (bispecific antibody, human IgG1, kappa) heavy: QVQLVQSGAEVKKPGASVKVSCKASGYTFTSYIMHWVRQAPGQGLEWMGYINPYNDGTKYNEKFKGRVTMTRDTSTSTVYMELSSLRSEDTAVYYCARLGFTTRNAMDYWGQGTLVTVSS[here human IgG1 constant region without letters]GGGSGGGGSGGGGSGGGGSEVQLLESGGGLVQPGGSLRLSCAASGFTYGTYAMSWFRQAPGKGREGVACIDIYGRASYTDPVKGRFTISQDNSKNTLYLQMNSLKAEDTAVYYCAARDFGYCTASWVHEGFSRYWGQGTLVTVSS light: DIVMTQSPDSLAVSLGERATINCKSSQSLLNSGNQKNYLAWYQQKPGQPPKLLIYGASTRESGVPDRFTGSGSGTDFTLTISSLQAEDVAVYYCQNDHSYPFTFGQGTKLEIKRTVAAPSVFIFPPSDEQLKSGTASVVCLLNNFYPREAKVQWKVDNALQSGNSQESVTEQDSKDSTYSLSSTLTLSKADYEKHKVYACEVTHQGLSSPVTKSFNRGEC	0	0.709	6.2	2.66	11	27.3	41.5	42.3	38	37.3	0.393	0.414	0.477	0.414	0.501	0.632	0.747	0.743	0.707	0.697	Readings at 490 nm (LDH release, T + E + Ab, second row) at 0 nM antibody (absorbance at 490 nm): 0.401; Readings at 490 nm (LDH release, T + E + Ab, second row) at 0.000512 nM antibody (absorbance at 490 nm): 0.392; Readings at 490 nm (LDH release, T + E + Ab, second row) at 0.00256 nM antibody (absorbance at 490 nm): 0.422; Readings at 490 nm (LDH release, T + E + Ab, second row) at 0.0128 nM antibody (absorbance at 490 nm): 0.425; Readings at 490 nm (LDH release, T + E + Ab, second row) at 0.064 nM antibody (absorbance at 490 nm): 0.48; Readings at 490 nm (LDH release, T + E + Ab, second row) at 0.32 nM antibody (absorbance at 490 nm): 0.624; Readings at 490 nm (LDH release, T + E + Ab, second row) at 1.6 nM antibody (absorbance at 490 nm): 0.749; Readings at 490 nm (LDH release, T + E + Ab, second row) at 8 nM antibody (absorbance at 490 nm): 0.768; Readings at 490 nm (LDH release, T + E + Ab, second row) at 40 nM antibody (absorbance at 490 nm): 0.73; Readings at 490 nm (LDH release, T + E + Ab, second row) at 200 nM antibody (absorbance at 490 nm): 0.728
QP14611463 (anti-Claudin 18.2 monoclonal antibody, humanized from QP207208) (antibody, human IgG1, kappa) heavy: QVQLVQSGAEVKKPGASVKVSCKASGYTFTSYIMHWVRQAPGQGLEWMGYINPYNDGTKYNEKFKGRVTMTRDTSTSTVYMELSSLRSEDTAVYYCARLGFTTRNAMDYWGQGTLVTVSS[here human IgG1 constant region without letters] light: DIVMTQSPDSLAVSLGERATINCKSSQSLLNSGNQKNYLAWYQQKPGQPPKLLIYGASTRESGVPDRFTGSGSGTDFTLTISSLQAEDVAVYYCQNDHSYPFTFGQGTKLEIKRTVAAPSVFIFPPSDEQLKSGTASVVCLLNNFYPREAKVQWKVDNALQSGNSQESVTEQDSKDSTYSLSSTLTLSKADYEKHKVYACEVTHQGLSSPVTKSFNRGEC	-12.9	-3.19	1.89	2.24	3.66	17.4	33.5	34.7	39.8	37.9	0.288	0.37	0.413	0.416	0.428	0.544	0.681	0.691	0.734	0.718	
